This note sets out measurements from the RNAGym collection of RNA variant scans (doi:10.1093/nar/gkz1192).

The source gives no read counts; variants with many changes may rest on few reads.

B1: CPEB3 Ribozyme (parent)
chain: UAACAGGGGGCCACAGCAGAAGCGUUCACGUCGCAGCCCCUGUCAGAUUCUGGUGAAUCUGCGAAUUCUGCUGUAUAUCUC

In the data set the parent is B1. As to the kind of experiment: self-cleavage, relative activity (ratio to wild type); higher = more cleavage; in vitro, sequencing. In short, it runs like this:
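After error-prone PCR and barcoding, CPEB3 ribozyme mutant libraries were transcribed with T7 RNA polymerase at 37°C for 5 hours, then given 15 min with DNase I before an EDTA stop, and they cleaved during both steps. Reverse transcription with template switching preceded Illumina sequencing. Relative activity divides a variant's cleaved/total read fraction by the unmutated ribozyme's. At least 5 reads were required per variant, and three batches were averaged.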
For G7A C12U U26G U43C U48C C62G U66C, the self-cleavage was found to be 0.02.

As to G7C A20U U25C, the self-cleavage amounted to 0.33.

As to G7A A64U U76A, the self-cleavage stood at 0.07.

On to G7A A21G C38U U51C U78C, for which the self-cleavage was found to be 0.33.

With G7A A64G U67C, the self-cleavage amounted to 0.13.

For G7A A20G U31A A64U U72A, the self-cleavage turned out to be 0.04.

Take G7A A65G G73A: the self-cleavage came to 0.1.

With G7C U41G A65G U69A U72C U74C, the self-cleavage was found to be 0.19.

For the variant G7A A13G G19A U41A G63A A75U, the self-cleavage turned out to be 0.04.

Consider G7U G10A A56G G63A U67G U78C, for which the self-cleavage came out at 0.03.

Turning to G7A A20G U74C, the self-cleavage was 0.33.

With G8A A13G U31C G36A, the self-cleavage turned out to be 0.07.

Take G7A U31G U43C U49C: the self-cleavage turned out to be 0.07.

For G7U C23U U54C U60C G70A, the self-cleavage stood at 0.04.

For G7U A21U U26G U41A U51C A57G, the self-cleavage was 0.03.

For the variant G7U A28U U67A, the self-cleavage is 0.15.

Take G7U G33A U41A G52U U54A U72C U76A: the self-cleavage turned out to be 0.15.

For G7A A35G A47G U69C U72A C79U, the self-cleavage stood at 0.03.

On to G7U A13G C29A A45U U72C, for which the self-cleavage was 0.29.

G7A A35U U41A G46C U54C A77C: the self-cleavage came out at 0.05.

With G7U C14U A57G, the self-cleavage came out at 0.36.

Consider G7A G9A G10U C11A U51C U76C, for which the self-cleavage was found to be 0.07.

For G7A A15G A35G U41C U48C, the self-cleavage was found to be 0.06.

On to G7A U43C U67C, for which the self-cleavage worked out at 0.08.

For the variant G7C A18U U51A A64G A65G U66C U67C, the self-cleavage was found to be 0.07.

In the case of G7A A20U A35U, the self-cleavage turned out to be 0.17.

For the variant G7C C23U U51A A77U, the self-cleavage worked out at 0.27.

As to G7A G10C U26G C50A U60C, the self-cleavage was 0.07.

As to G7U U43A A45G U69G U78C, the self-cleavage worked out at 0.14.

For G7U A21G A35U U60C, the self-cleavage came out at 0.12.

As to G7A A13G A28G, the self-cleavage was found to be 0.07.

Take G7A A45U U54G U76C: the self-cleavage was found to be 0.07.

Take G7A A35U A56G U58C G61A: the self-cleavage was 0.1.

As to G7U A15G G53U, the self-cleavage is 0.08.

Take G7A A15G A28U A45U U49A: the self-cleavage is 0.06.

As for G7A A18C G33A A35U, the self-cleavage amounted to 0.1.

Take G7A A20G U48A A56C G70A: the self-cleavage is 0.04.

For the variant G7A U25C U60C U67A, the self-cleavage was determined as 0.16.

Take G7C U26G A64C: the self-cleavage was 0.04.

On to G7U U49C G53A, for which the self-cleavage was 0.33.

Turning to G7A U25C A28C, the self-cleavage worked out at 0.03.

For G7C A20G A47G, the self-cleavage worked out at 0.32.

As to G7U C14U U48A, the self-cleavage amounted to 0.25.

For G7U A15G A20G U25A A28U A56G, the self-cleavage was 0.26.

With G7A A13U A28U A35G U41A A57G C62A, the self-cleavage is 0.05.

With G7U A20U A28G C44U U66C U72C, the self-cleavage worked out at 0.03.

On to G7A A35U U51C U58A A77U, for which the self-cleavage worked out at 0.06.

On to G7U U25C G30A U31C A77U, for which the self-cleavage was found to be 0.05.

On to G8A A13G A45G U69C, for which the self-cleavage is 0.08.

Turning to G7U G22C U26C U41A G73C, the self-cleavage turned out to be 0.26.

Take G7C U26C U67A: the self-cleavage stood at 0.22.

Consider G7C G10C A13C U26C U54A U60C, for which the self-cleavage stood at 0.54.

In the case of G6U U74C U78C, the self-cleavage came to 0.46.

Regarding G7U A57G U67A, the self-cleavage is 0.18.

For the variant G7A A13U U41C U51A U74C U80G, the self-cleavage stood at 0.11.

Take G7C U25C A56G U72A: the self-cleavage amounted to 0.08.

Consider G7C C23U A56G, for which the self-cleavage stood at 0.24.

Turning to G7C C17U A28G A75G, the self-cleavage was 0.03.

As for G7A A20U C39A U80C, the self-cleavage came out at 0.06.

For G7U A57G C68U, the self-cleavage was found to be 0.05.

On to G7C A13U A47G U72A, for which the self-cleavage amounted to 0.23.

Consider G7U A15U U31C G36A, for which the self-cleavage was 0.07.

G7U U48C U49C A57G A64G: the self-cleavage is 0.06.

Regarding G7A A56G U74C, the self-cleavage amounted to 0.29.

G7U A13C A21U U54C A56G U67C: the self-cleavage came to 0.12.

Turning to G7A A28G U66C A75G, the self-cleavage was found to be 0.06.

G7C U43A U51C: the self-cleavage was 0.06.

Regarding G7U G63U U67A U69A, the self-cleavage is 0.

Take G7U A18G C29A C32U U43A: the self-cleavage worked out at 0.33.

In the case of G7C C23U U51A U67A, the self-cleavage was found to be 0.12.

As for G8A A13C U26A, the self-cleavage worked out at 0.37.

Regarding G7U A13G A20C A35U, the self-cleavage was determined as 0.07.

For G7C U41C A57G U60A U72C, the self-cleavage was determined as 0.08.

Regarding G7A G63A U69A U78C, the self-cleavage turned out to be 0.06.

For the variant G7A A21G U66C U69C U76G, the self-cleavage stood at 0.

As to G7A C39U A57G, the self-cleavage was determined as 0.17.

On to G7A C44U A57U A65G U74C, for which the self-cleavage is 0.11.

On to G7A A28G A35U U60C, for which the self-cleavage came out at 0.06.

For the variant G7A A13G U51C U54A C79G, the self-cleavage was determined as 0.51.

Consider G7C U25C A28G U51A U74C, for which the self-cleavage came out at 0.06.

G7A A35U U54C U74A: the self-cleavage came to 0.07.

With G7C A18G U41A A65U, the self-cleavage stood at 0.06.

On to G7A U25C U41C A45G U67A, for which the self-cleavage amounted to 0.14.
